This is one part of the list.
These sequences were tested against T1, OsWOX13 (Oryza sativa, UniProt Q5QMM3 1-267) (assay: protein-binding microarray (RPBM); PBS, 2% BSA, 51.3 ng/ul salmon testes DNA, 50 uM zinc acetate, 200 nM TF, 25 C, 1 h; high values mean tight binding). Details: protein: recombinant; tags: N-terminal polyhistidine and DsRed monomer fusion (pET32a); label: CyDye5-dUTP incorporated in the synthesized complementary strand; 3' TTTTT single-stranded linker to array surface; dsDNA, one strand shown.
T1 sequence: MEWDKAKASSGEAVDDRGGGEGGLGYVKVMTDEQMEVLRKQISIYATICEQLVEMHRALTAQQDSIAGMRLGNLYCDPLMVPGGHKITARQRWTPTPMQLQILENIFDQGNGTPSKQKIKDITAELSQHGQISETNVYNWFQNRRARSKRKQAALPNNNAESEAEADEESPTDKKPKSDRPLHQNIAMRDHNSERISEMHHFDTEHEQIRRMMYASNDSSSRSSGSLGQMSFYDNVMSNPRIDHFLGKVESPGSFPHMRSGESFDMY
In short: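 Binding signal is reported as fluorescence intensity per feature (arbitrary units) from an Axon 4000B scanner. Incubation used 200 nM of each Ni–NTA-purified, N-terminally polyhistidine- and DsRed-fused transcription factor from E. coli BL21-CodonPlus on a double-stranded custom Agilent array for 1 h at 25 °C, with 50 µM zinc acetate in the buffer, followed by washing.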

Sequence	binding signal
CCCATATCTTGATTGAGCTTGTTGAGATTCCCCATGCACACGGAGTCACCTAGTGCAG	32100 fluorescence intensity (a.u.)
GAGCCCATTTAGATTGATATCATTTTCAACCATACTATTTCGGAGTCACCTAGTGCAG	19600 fluorescence intensity (a.u.)
ACTAATAGATCGTCTATCTTACGAACCACGGAGATCTCCACGGAGTCACCTAGTGCAG	8120 fluorescence intensity (a.u.)
TGCAGTTATTTATCATTCAATTAGTGAAGCATAAACTCATCGGAGTCACCTAGTGCAG	11300 fluorescence intensity (a.u.)
GGCACGTAATTAACAGTTTTATAGTATAATGTCAAGTCGCCGGAGTCACCTAGTGCAG	29100 fluorescence intensity (a.u.)
TATATATATATATATATATATATATATATATATAAAGAGACGGAGTCACCTAGTGCAG	35300 fluorescence intensity (a.u.)
TCGTTGATGGATATACTATTGTGGTTGATACTAGTGTTATCGGAGTCACCTAGTGCAG	13500 fluorescence intensity (a.u.)
GTAACTGACAGGGTGGCCCCACTGTCACAGTGTCCCTACCCGGAGTCACCTAGTGCAG	6090 fluorescence intensity (a.u.)
TGATCTATTAACGTGTGATTAATTAAGTATTACCTACCGTCGGAGTCACCTAGTGCAG	23500 fluorescence intensity (a.u.)
GCTTATGATTATTATAATCTAAATTATTAGAAATAAGTTGCGGAGTCACCTAGTGCAG	27100 fluorescence intensity (a.u.)
ATTCACTAATTTTCGGTTATTTAGGAAAGTGTAAACCCTGCGGAGTCACCTAGTGCAG	13800 fluorescence intensity (a.u.)
AATCAATCTATATCGTTATAATCCGGACCGACCATGATCTCGGAGTCACCTAGTGCAG	18800 fluorescence intensity (a.u.)
CCAAAATGTAATTTTAAAATTAAAATTTCAAAATCTATAACGGAGTCACCTAGTGCAG	13200 fluorescence intensity (a.u.)
CCGTGCTGCATGATTGACCAAACAGACCATGTTGGTTTTGCGGAGTCACCTAGTGCAG	29000 fluorescence intensity (a.u.)
TAGATAAATTTTACAATATATAACGGCTTTATTGAATGCTCGGAGTCACCTAGTGCAG	5100 fluorescence intensity (a.u.)
AACCTGATTGAAAACTGCAGGTCTCAGAGCACGTAATCTACGGAGTCACCTAGTGCAG	41800 fluorescence intensity (a.u.)
ATTGATGATTTAATGAAACTAATTTGATATTGTAGATGTTCGGAGTCACCTAGTGCAG	48300 fluorescence intensity (a.u.)
TTAGATTGGTTATAGATAATTTGGAATGAGTAGTTGGCTACGGAGTCACCTAGTGCAG	48000 fluorescence intensity (a.u.)
GAATCGCAGGATTGATAAAACGTAGGATTTTGATAGGAATCGGAGTCACCTAGTGCAG	7170 fluorescence intensity (a.u.)
ACTACTTAACAGGTTTCAGTGTAGATCATCTACTTAGTTGCGGAGTCACCTAGTGCAG	3170 fluorescence intensity (a.u.)
GATCTGTTGATTATATATGCCCATTTGAGCGGCCAGCGTCCGGAGTCACCTAGTGCAG	8120 fluorescence intensity (a.u.)

Sequence	binding signal
AAAATATTACCCCAAATCATTACAATCACTAAAACCAAGCCGGAGTCACCTAGTGCAG	3900 fluorescence intensity (a.u.)
ATTACACTGACAAATTGGCCCCACATGTCAGTGACTGGGCCGGAGTCACCTAGTGCAG	11300 fluorescence intensity (a.u.)
ATAATGCAAAATTGCAATTTGCAACCCCACCATGCCATTTCGGAGTCACCTAGTGCAG	5940 fluorescence intensity (a.u.)
TGGCTTTAATTATGTACCACGATGAGAAAGCATTAGATGCCGGAGTCACCTAGTGCAG	8900 fluorescence intensity (a.u.)
ATGATTGGATAAGGATTGTGATTGGTGGAGAAGATAAAGTCGGAGTCACCTAGTGCAG	50500 fluorescence intensity (a.u.)
TGTAATAATAATTTAATCGATCTTTCAAGGGGCATTCTCGCGGAGTCACCTAGTGCAG	8040 fluorescence intensity (a.u.)
ATTCCAATCAATTGGTATGTCTCATATTTTGGCGCAGAAACGGAGTCACCTAGTGCAG	16000 fluorescence intensity (a.u.)
AAATATTTGCGGTTGATTTGAAGAGTCGTCAGTTTGAGACCGGAGTCACCTAGTGCAG	4420 fluorescence intensity (a.u.)
GACTTGTAATTTGTAGCAGTGGTAAGAAATAAATCTGACCCGGAGTCACCTAGTGCAG	3900 fluorescence intensity (a.u.)
CTCATGATAGGGACAACAAAATATCCGGATTAATTCCACACGGAGTCACCTAGTGCAG	4450 fluorescence intensity (a.u.)
CCATGGTTTTACTGATTTAGACATGTATTTTGGTCCGGATCGGAGTCACCTAGTGCAG	3500 fluorescence intensity (a.u.)
ACTGAGTGTAATTTAATATTACATAGTACGAGTATATGATCGGAGTCACCTAGTGCAG	4080 fluorescence intensity (a.u.)
GAGGTGATGACTGATGAGAGCCAGGCAGCCACCACCGCCGCGGAGTCACCTAGTGCAG	6780 fluorescence intensity (a.u.)
CGATCAGCTCACTTGATTGGAGTACTCTATTTGTTTTAGACGGAGTCACCTAGTGCAG	11600 fluorescence intensity (a.u.)
AACAATTATTTAAATACATATACGAATGAATTAAATGTTACGGAGTCACCTAGTGCAG	3500 fluorescence intensity (a.u.)
TCACTGACAGATGGGGTCTACAAGATAACTCAGGCATTCACGGAGTCACCTAGTGCAG	5640 fluorescence intensity (a.u.)
GTCTGACAGAGATAGGAGAGCAGTAGTAGTAGATCACCCTCGGAGTCACCTAGTGCAG	6940 fluorescence intensity (a.u.)
TGGAAATTGACTCCGAATCTCTGATGAACGGCGGTGGGGCCGGAGTCACCTAGTGCAG	27200 fluorescence intensity (a.u.)
CCTGTAAATTGCGAGACGAATTTATTAAGCCTAATTAATCCGGAGTCACCTAGTGCAG	17900 fluorescence intensity (a.u.)
CAAATTTAACTGAGTTAATAGACAAATATAGTAATATTTACGGAGTCACCTAGTGCAG	12700 fluorescence intensity (a.u.)
CCTAAAATTACAATAATTCCAAATTCAGACAGTAAAACTACGGAGTCACCTAGTGCAG	3310 fluorescence intensity (a.u.)

Sequence	binding signal
ACAATCTGACCCAAATCAATCATACCGCGACATCGCATGCCGGAGTCACCTAGTGCAG	11100 fluorescence intensity (a.u.)
TTTTAACAGTAGTATAATTAGCTTGTATGAATAAACCTGTCGGAGTCACCTAGTGCAG	9210 fluorescence intensity (a.u.)
CCCTTGAATCAATTAATCAACTGCTTTAGTAGTTCTTACGCGGAGTCACCTAGTGCAG	21400 fluorescence intensity (a.u.)
ATAGCTAATTTTCGGTATGTTACACCATCCATCTGCCATGCGGAGTCACCTAGTGCAG	5050 fluorescence intensity (a.u.)
AAAATCAGACAGAAAGCCAATTTGACCTTGTTCCTTTTGTCGGAGTCACCTAGTGCAG	3430 fluorescence intensity (a.u.)
TTAATTATATGTTAATCAATCGCTCTGTTTTATACGTTGGCGGAGTCACCTAGTGCAG	33200 fluorescence intensity (a.u.)
AAGATTTAATTGTTACGAACACAACGGCGTAATCGGATCGCGGAGTCACCTAGTGCAG	36000 fluorescence intensity (a.u.)
GGGTTTTCACAAATTGATCTCAAATTCGATTTCTCCTCTGCGGAGTCACCTAGTGCAG	3790 fluorescence intensity (a.u.)
TTAGCTAATTGTACAGTGTTGTACGTCTGCATTTTGTTGCCGGAGTCACCTAGTGCAG	17600 fluorescence intensity (a.u.)
TGGCACACTAATTAGGGAGAAAATCTCTATCTTGTGTTGTCGGAGTCACCTAGTGCAG	9710 fluorescence intensity (a.u.)
GGTGTTCTGTTAACTAATCTGAACAACATGATGCTCATCCCGGAGTCACCTAGTGCAG	3290 fluorescence intensity (a.u.)
TTGATGTGGAGTAATGGTGTTAACATGCAAATCATCCCTCCGGAGTCACCTAGTGCAG	3480 fluorescence intensity (a.u.)
TCTAATATGTTGATATTGATTACCTTGTAGCACCTACTTGCGGAGTCACCTAGTGCAG	19900 fluorescence intensity (a.u.)
ACTATTAGTGTATTATTAATTAAATATTACTGTATTAACGCGGAGTCACCTAGTGCAG	3490 fluorescence intensity (a.u.)
CCAGTATTAATGTCAATTAGTTTTCCAATCCATGATCAAACGGAGTCACCTAGTGCAG	17000 fluorescence intensity (a.u.)
TATAATAATTGCTAGTGAGTGATGATATGGCACACTTGCACGGAGTCACCTAGTGCAG	21900 fluorescence intensity (a.u.)
ATCCTCTATAATTATGGACAGAGGGAGTATGTTTATCTACCGGAGTCACCTAGTGCAG	6940 fluorescence intensity (a.u.)
AGTGTTCTAATAGATCAATTGATTTCGGTACTAATCAGATCGGAGTCACCTAGTGCAG	11400 fluorescence intensity (a.u.)
GTCACCGTGACTGGCGTTGCCAAACTAGCGTGAACAAAAGCGGAGTCACCTAGTGCAG	3150 fluorescence intensity (a.u.)
TTAACTTGTCAACGAATCTGATTTTCATCCTTCAACCGAACGGAGTCACCTAGTGCAG	4150 fluorescence intensity (a.u.)
AAAATTAATTCACACTTTAAATGTTACATGGATTTGAACTCGGAGTCACCTAGTGCAG	15500 fluorescence intensity (a.u.)

Sequence	binding signal
TGAAAATTTAACTTATGTTATAAACATAAGGCACGCAATGCGGAGTCACCTAGTGCAG	4910 fluorescence intensity (a.u.)
GTTTATAATTTGCACAATTTCTATAGGGTTTCAGTTAAATCGGAGTCACCTAGTGCAG	4710 fluorescence intensity (a.u.)
ACCTTAATAATGAAATTTCTTGCACAATTTTAGTTCATATCGGAGTCACCTAGTGCAG	6300 fluorescence intensity (a.u.)
CGGATGATTACTGTAGCATCATTGTAGCAAACCATAGATTCGGAGTCACCTAGTGCAG	11200 fluorescence intensity (a.u.)
ATTAATTAGGCTTAATAAATTCATGTCGCAATTTATAGGCCGGAGTCACCTAGTGCAG	32900 fluorescence intensity (a.u.)
TTATACCAATCACAAGTTCATTTTAACAATTTGCTTACAGCGGAGTCACCTAGTGCAG	17900 fluorescence intensity (a.u.)
ATAATTAGCAGATGATTACTATAGCATCACTGTAGCAAATCGGAGTCACCTAGTGCAG	22300 fluorescence intensity (a.u.)
TTTCGTAGTTCTAATTTTCTGATTGTTATCGATATGGTTACGGAGTCACCTAGTGCAG	5330 fluorescence intensity (a.u.)
AGAAATAATATCTTACTAATTAGCAACTGAGGTTTCTCTTCGGAGTCACCTAGTGCAG	10600 fluorescence intensity (a.u.)
TTTATGGCGTCAATCATTTAACAGTTACTTTTAAACGCGGCGGAGTCACCTAGTGCAG	19900 fluorescence intensity (a.u.)
ACTTCAGTCATTTTCCATCACATCAACATGTCATATACATCGGAGTCACCTAGTGCAG	4220 fluorescence intensity (a.u.)
CTTCCTCATCAACTCAATGATCGACGTATATATATATACACGGAGTCACCTAGTGCAG	3560 fluorescence intensity (a.u.)
AATTTAGATATGAAGTCTGATTAGATTCGTAGTATGTGTTCGGAGTCACCTAGTGCAG	20300 fluorescence intensity (a.u.)
GGATCATTGCCCTTGATTTATCGCCTAATATCACTGCGATCGGAGTCACCTAGTGCAG	5280 fluorescence intensity (a.u.)
GGTGTAAATTAGTCAATCTTGAATCGAAGAGAGTATGGAACGGAGTCACCTAGTGCAG	25900 fluorescence intensity (a.u.)
GTGAGATTAGATTCCATGATTGGACAAAAGTGTGTTAATCCGGAGTCACCTAGTGCAG	47900 fluorescence intensity (a.u.)
TCGACACCTCGTCAAGGGGCAATCACACTCCGTGACGACTCGGAGTCACCTAGTGCAG	5830 fluorescence intensity (a.u.)
CCATTTAGATTATTAAAAGTGACATCGTTCGATTCGTCCTCGGAGTCACCTAGTGCAG	9560 fluorescence intensity (a.u.)
TTTTAATTGTACATTGTAATATTATTCATAGAATCAACATCGGAGTCACCTAGTGCAG	9230 fluorescence intensity (a.u.)
CCTCATTGTCAATCAATGTTTTGGCTATCATCCTCGATGCCGGAGTCACCTAGTGCAG	41800 fluorescence intensity (a.u.)
GTAAATTGATTTGTATATGGCCATTTCCAACCCAAAACACCGGAGTCACCTAGTGCAG	56300 fluorescence intensity (a.u.)

Reference: publication PMC7819943, “Rice protein-binding microarrays: a tool to detect cis-acting elements near promoter regions in rice”
